# Source: the supplement of paper PMC8728848
# The list shows a part of the results.
# Legend:
# Assay in all cases: glycan array binding signal (z-score within array); higher = stronger binding
# Conditions in all cases: glycan notation: IUPAC condensed, linker removed; mutation: R82H, R255H
# Gal6S(b1-4)Glc = molecular target: Gal6S(b1-4)Glc
# In short: (§1)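 Negative Z-scores can be read as non-binding. The Z-score is calculated within each array and then averaged across arrays of one protein sequence at different concentrations or buffers and across linkers. Arrays, 3228 in all, were curated from the Consortium for Functional Glycomics database and kept only where the protein sequence was available.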
# Gal6S(b1-4)Glc6S = molecular target: Gal6S(b1-4)Glc6S
# In short: as §1
# Gal6S(b1-4)GlcNAc = molecular target: Gal6S(b1-4)GlcNAc
# In short: as §1
# Gal6S(b1-4)GlcNAc6S = molecular target: Gal6S(b1-4)GlcNAc6S
# In short: as §1
# GalNAc(a1-3)Gal = molecular target: GalNAc(a1-3)Gal
# In short: as §1
# GalNAc(a1-3)GalNAc = molecular target: GalNAc(a1-3)GalNAc
# In short: as §1
# [1] = molecular target: GalNAc(a1-3)GalNAc(b1-3)Gal(a1-4)Gal(b1-4)Glc
# In short: as §1
# [2] = molecular target: GalNAc(a1-3)GalNAc(b1-3)Gal(a1-4)Gal(b1-4)GlcNAc
# In short: as §1
# GalNAc(b1-3)Gal = molecular target: GalNAc(b1-3)Gal
# In short: as §1
# [3] = molecular target: GalNAc(b1-3)Gal(a1-4)Gal(b1-4)GlcNAc
# In short: as §1
# [4] = molecular target: GalNAc(b1-3)Gal(a1-4)Gal(b1-4)GlcNAc(b1-3)Gal(b1-4)Glc
# In short: as §1
# [5] = molecular target: GalNAc(b1-3)Gal(a1-6)Gal(b1-4)Glc
# In short: as §1
# GalNAc(b1-3)GalNAc = molecular target: GalNAc(b1-3)GalNAc
# In short: as §1
# GalNAc(b1-3)GlcNAc = molecular target: GalNAc(b1-3)GlcNAc
# In short: as §1
# GalNAc(b1-4)Gal(b1-4)Glc = molecular target: GalNAc(b1-4)Gal(b1-4)Glc
# In short: as §1
# GalNAc(b1-4)GlcNAc = molecular target: GalNAc(b1-4)GlcNAc
# In short: as §1
# [6] = molecular target: GalNAc(b1-4)GlcNAc(b1-2)Man
# In short: as §1
# [7] = molecular target: GalNAc(b1-4)GlcNAc(b1-2)Man(a1-3)[GalNAc(b1-4)GlcNAc(b1-2)Man(a1-6)]Man(b1-4)GlcNAc(b1-4)GlcNAc
# In short: as §1
# [8] = molecular target: GalNAc(b1-4)GlcNAc(b1-3)GalNAc(b1-4)GlcNAc
# In short: as §1
# GalNAc(b1-4)GlcNAc6S = molecular target: GalNAc(b1-4)GlcNAc6S
# In short: as §1
# GalNAc(b1-6)GalNAc = molecular target: GalNAc(b1-6)GalNAc
# In short: as §1
# GalNAc3S(b1-4)GlcNAc = molecular target: GalNAc3S(b1-4)GlcNAc
# In short: as §1
# GalNAc3S(b1-4)GlcNAc3S = molecular target: GalNAc3S(b1-4)GlcNAc3S
# In short: as §1
# [9] = molecular target: GalNAc3S(b1-4)[Fuc(a1-3)]GlcNAc
# In short: as §1
# GalNAc4S6S(b1-4)GlcNAc = molecular target: GalNAc4S6S(b1-4)GlcNAc
# In short: as §1
# GalNAc6S(b1-4)GlcNAc = molecular target: GalNAc6S(b1-4)GlcNAc
# In short: as §1
# Glc(a1-4)Glc = molecular target: Glc(a1-4)Glc
# In short: as §1
# [10] = molecular target: Glc(a1-4)Glc(a1-4)Glc(a1-4)Glc
# In short: as §1
# Glc(a1-6)Glc(a1-6)Glc = molecular target: Glc(a1-6)Glc(a1-6)Glc
# In short: as §1
# [11] = molecular target: Glc(a1-6)Glc(a1-6)Glc(a1-6)Glc
# In short: as §1
# Glc(b1-4)Glc = molecular target: Glc(b1-4)Glc
# In short: as §1
# Glc(b1-6)Glc = molecular target: Glc(b1-6)Glc
# In short: as §1
# GlcA(b1-3)Gal = molecular target: GlcA(b1-3)Gal
# In short: as §1
# GlcA(b1-3)GlcNAc = molecular target: GlcA(b1-3)GlcNAc
# In short: as §1
# GlcA(b1-6)Gal = molecular target: GlcA(b1-6)Gal
# In short: as §1
# [12] = molecular target: GlcA3S(b1-3)Gal(b1-4)GlcNAc(b1-2)Man
# In short: as §1
# [13] = molecular target: GlcA3S(b1-3)Gal(b1-4)GlcNAc(b1-3)Gal(b1-4)Glc
# In short: as §1
binder,measurement,setting,value
"Gal 8 (Mus musculus), Q9JL15 (protein) MGGSHHHHHHGMASMLSLNNLQNIIYNPIIPYVGTITEQLKPGSLIVIRGHVPKDSERFQVDFQLGNSLKPRADVAFHFNPHFKRSSCIVCNTLTQEKWGWEEITYDMPFRKEKSFEIVFMVLKNKFQVAVNGRHVLLYAHRISPEQIDTVGIYGKVNIHSIGFRFSSASALPHTLGDLQSMETSALGLTQINRENIQKPGKLQLSLPFEARLNASMGPGRTVVIKGEVNTNARSFNVDLVAGKTRDIALHLNPHLNVKAFVRNSFLQDAWGEEERNITCFPFSSGMYFEMIIYCDVREFKVAINGVHSLEYKHRFKDLSSIDTLSVDGDIRLLDVRSW",glycan array binding signal (z-score),Gal6S(b1-4)Glc,-0.236
same,glycan array binding signal (z-score),Gal6S(b1-4)Glc6S,-0.193
same,glycan array binding signal (z-score),Gal6S(b1-4)GlcNAc,-0.26
same,glycan array binding signal (z-score),Gal6S(b1-4)GlcNAc6S,-0.225
same,glycan array binding signal (z-score),GalNAc(a1-3)Gal,-0.251
same,glycan array binding signal (z-score),GalNAc(a1-3)GalNAc,-0.215
same,glycan array binding signal (z-score),[1],-0.214
same,glycan array binding signal (z-score),[2],-0.222
same,glycan array binding signal (z-score),GalNAc(b1-3)Gal,-0.136
same,glycan array binding signal (z-score),[3],-0.24
same,glycan array binding signal (z-score),[4],-0.261
same,glycan array binding signal (z-score),[5],-0.265
same,glycan array binding signal (z-score),GalNAc(b1-3)GalNAc,-0.259
same,glycan array binding signal (z-score),GalNAc(b1-3)GlcNAc,-0.234
same,glycan array binding signal (z-score),GalNAc(b1-4)Gal(b1-4)Glc,-0.212
same,glycan array binding signal (z-score),GalNAc(b1-4)GlcNAc,-0.245
same,glycan array binding signal (z-score),[6],-0.26
same,glycan array binding signal (z-score),[7],-0.194
same,glycan array binding signal (z-score),[8],-0.271
same,glycan array binding signal (z-score),GalNAc(b1-4)GlcNAc6S,-0.253
same,glycan array binding signal (z-score),GalNAc(b1-6)GalNAc,0.023
same,glycan array binding signal (z-score),GalNAc3S(b1-4)GlcNAc,-0.264
same,glycan array binding signal (z-score),GalNAc3S(b1-4)GlcNAc3S,-0.249
same,glycan array binding signal (z-score),[9],-0.297
same,glycan array binding signal (z-score),GalNAc4S6S(b1-4)GlcNAc,-0.218
same,glycan array binding signal (z-score),GalNAc6S(b1-4)GlcNAc,-0.276
same,glycan array binding signal (z-score),Glc(a1-4)Glc,-0.212
same,glycan array binding signal (z-score),[10],-0.205
same,glycan array binding signal (z-score),Glc(a1-6)Glc(a1-6)Glc,-0.23
same,glycan array binding signal (z-score),[11],-0.178
same,glycan array binding signal (z-score),Glc(b1-4)Glc,-0.224
same,glycan array binding signal (z-score),Glc(b1-6)Glc,-0.229
same,glycan array binding signal (z-score),GlcA(b1-3)Gal,-0.249
same,glycan array binding signal (z-score),GlcA(b1-3)GlcNAc,-0.232
same,glycan array binding signal (z-score),GlcA(b1-6)Gal,-0.285
same,glycan array binding signal (z-score),[12],-0.264
same,glycan array binding signal (z-score),[13],-0.198
